Measurements as given in the supplement of paper PMC6531468.
The other results are listed elsewhere or left out. Values come from read counts of a selection and are noisy. Scores sum up all selected molecules that hold the word; the word was not tested alone.

Columns and labels:
Test in all cases: 6-mer SELEX enrichment z-score vs GST control; IMP3 is the RNA-binding protein IGF2BP3; higher = more enriched by binding
IMP3 KH1-4 = conditions: construct: KH1-4 (164-579); SELEX round: R4
Protocol: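 SELEX-seq with GST-tagged IMP3 KH1-4 (Pro164-Lys579) and an N40 RNA pool, round 4. 6-mer z-score of sequence-tag enrichment normalised to the corresponding GST SELEX round; RNA k-mers written as DNA (T for U).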

IMP3 RRM1-2 = conditions: construct: RRM1-2 (1-163); SELEX round: R2
Sequence of IMP3 RRM1-2 (chain, as listed by the source): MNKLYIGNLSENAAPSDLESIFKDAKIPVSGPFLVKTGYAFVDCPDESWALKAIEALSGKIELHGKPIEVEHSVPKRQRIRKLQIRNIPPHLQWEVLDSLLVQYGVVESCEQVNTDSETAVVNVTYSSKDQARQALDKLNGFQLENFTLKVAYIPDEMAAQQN
Protocol: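 SELEX-seq with GST-tagged IMP3 RRM1-2 (Met1-Asn163) and an N40 RNA pool, round 2. 6-mer enrichment z-score normalised to GST SELEX. RNA written as DNA (T = U).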

IMP3 full-length = IMP3 full-length (UniProt O00425); conditions: construct: FL IMP3 (1-579); SELEX round: R4
Sequence of UniProt O00425 (O00425 whole entry): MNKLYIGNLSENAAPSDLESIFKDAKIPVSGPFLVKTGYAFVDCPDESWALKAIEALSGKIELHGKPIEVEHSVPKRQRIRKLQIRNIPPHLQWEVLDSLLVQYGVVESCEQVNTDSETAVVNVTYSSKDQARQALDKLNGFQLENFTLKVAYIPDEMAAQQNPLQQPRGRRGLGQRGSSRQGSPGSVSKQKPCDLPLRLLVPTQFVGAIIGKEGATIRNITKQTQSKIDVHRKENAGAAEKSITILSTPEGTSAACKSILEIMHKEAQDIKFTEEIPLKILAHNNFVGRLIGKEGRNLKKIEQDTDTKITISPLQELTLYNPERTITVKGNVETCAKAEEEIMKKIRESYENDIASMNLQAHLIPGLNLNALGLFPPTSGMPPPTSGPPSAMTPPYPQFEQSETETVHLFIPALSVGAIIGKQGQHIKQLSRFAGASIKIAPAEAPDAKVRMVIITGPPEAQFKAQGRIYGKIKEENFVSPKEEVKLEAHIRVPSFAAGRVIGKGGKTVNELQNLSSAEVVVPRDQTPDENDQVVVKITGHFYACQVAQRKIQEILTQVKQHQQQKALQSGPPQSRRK
Protocol: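 SELEX-seq with GST-tagged full-length IMP3 and an N40 RNA pool, round 4. Each 6-mer is scored as an enrichment z-score of sequence tags containing it, normalised to the matching GST SELEX round. RNA written as DNA (T = U).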

IMP3 KH1-2 = conditions: construct: KH1-2 (164-376); SELEX round: R4
Sequence of IMP3 KH1-2 (chain, as listed by the source): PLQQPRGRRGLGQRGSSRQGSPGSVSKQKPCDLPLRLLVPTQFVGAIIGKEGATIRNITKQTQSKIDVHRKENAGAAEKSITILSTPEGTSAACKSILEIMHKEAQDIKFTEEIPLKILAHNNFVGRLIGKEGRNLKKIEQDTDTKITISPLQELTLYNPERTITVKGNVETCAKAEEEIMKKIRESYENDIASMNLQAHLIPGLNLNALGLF
Protocol: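 SELEX-seq with GST-tagged IMP3 KH1-2 (Pro164-Phe376) and an N40 RNA pool, round 4 (stringent 300/600 mM KCl washes). 6-mer z-score of sequence-tag enrichment normalised to the corresponding GST SELEX round; RNA k-mers written as DNA (T for U).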

IMP3 KH3-4 = conditions: construct: KH3-4 (377-579); SELEX round: R4
Sequence of IMP3 KH3-4 (chain, as listed by the source): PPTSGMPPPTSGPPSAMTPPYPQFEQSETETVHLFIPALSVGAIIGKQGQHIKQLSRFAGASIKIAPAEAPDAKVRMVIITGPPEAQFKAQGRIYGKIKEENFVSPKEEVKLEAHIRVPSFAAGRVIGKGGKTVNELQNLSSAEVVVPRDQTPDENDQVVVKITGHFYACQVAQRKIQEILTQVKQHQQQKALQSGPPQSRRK
Protocol: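 SELEX-seq with GST-tagged IMP3 KH3-4 (Pro377-Lys579) and an N40 RNA pool, round 4. 6-mer z-score of sequence-tag enrichment normalised to the corresponding GST SELEX round; RNA k-mers written as DNA (T for U).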

Sequence of IMP3 KH1-4 (chain, as listed by the source): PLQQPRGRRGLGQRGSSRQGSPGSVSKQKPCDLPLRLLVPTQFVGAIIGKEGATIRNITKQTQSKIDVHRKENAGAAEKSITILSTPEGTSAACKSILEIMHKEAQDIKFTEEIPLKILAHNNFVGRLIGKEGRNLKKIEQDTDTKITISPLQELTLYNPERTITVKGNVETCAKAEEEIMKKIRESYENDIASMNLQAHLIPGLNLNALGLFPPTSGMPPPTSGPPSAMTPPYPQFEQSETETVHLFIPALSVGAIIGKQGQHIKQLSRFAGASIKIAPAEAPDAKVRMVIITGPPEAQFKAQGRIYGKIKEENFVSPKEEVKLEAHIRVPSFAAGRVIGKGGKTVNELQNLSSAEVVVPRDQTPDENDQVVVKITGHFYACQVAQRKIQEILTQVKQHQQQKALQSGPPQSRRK

Sequence	6-mer SELEX enrichment z-score (IMP3 KH1-4)	6-mer SELEX enrichment z-score (IMP3 RRM1-2)	6-mer SELEX enrichment z-score (IMP3 full-length)	6-mer SELEX enrichment z-score (IMP3 KH1-2)	6-mer SELEX enrichment z-score (IMP3 KH3-4)
CGTTAA	-0.535	-0.305	-0.578	-0.504	-0.389
GCCCGG	-1.06	-0.524	-0.055	-0.806	-1.09
GGGATG	0.815	-0.092	0.238	0.829	0.803
GAGAGT	-0.266	-0.404	-0.289	-0.322	-0.211
TACATA	2.24	1.19	1.81	2.68	2.47
GAGACC	-1.33	-1.33	-1.26	-1.16	-1.45
TTACAT	1.88	0.859	1.15	1.96	1.93
CGCATT	0.381	0.636	0.62	0.244	0.104
ATCAAG	-0.454	1.04	0.364	-0.542	-0.316
ACCGGG	-1.17	-0.834	-0.131	-0.879	-1.07
CGACTC	-0.902	-0.35	-0.55	-0.836	-1.2
TCTTAT	0.675	0.497	0.306	0.582	0.745
CGCTCA	-0.138	0.698	0.652	0.065	-0.276
AGGAGG	1.24	-0.128	0.58	1.23	1.07
GAATCA	0.474	1.29	1.06	0.311	0.428
GATCCT	-0.177	-0.186	-0.519	-0.26	-0.339
CTAGGG	-0.174	0.116	-0.11	-0.063	0.01
GCGTCA	-0.731	0.416	0.514	-0.603	-0.568
AACAAT	1.51	0.772	1.19	2.1	2.23
GCGCTT	-0.31	0.413	0.163	-0.217	-0.158
TGTCCT	0.295	0.049	-0.126	0.087	0.055
TGTAGT	-0.757	0.29	-0.736	-0.728	-0.55
ATGTCT	-0.178	0.306	0.074	-0.126	-0.042
CCTCTC	-0.32	0.167	-0.304	-0.205	-0.62
CTCTAG	-0.504	0.13	-0.278	-0.429	-0.379
CCACTT	0.321	0.352	-0.076	0.244	-0.135
CATATC	1.13	1.55	1.41	1.14	0.797
AAAGGG	0.039	-0.929	-0.584	0.195	0.696
TTTGAC	-0.011	-0.278	-0.486	-0.133	-0.017
AAAGAA	0.392	-2.73	-1.74	0.208	1.9
